# Test results as given in PubChem BioAssay AID651820 (National Center for Advancing Translational Sciences (NCATS), 2012).
# Screen size: about 340,000 compounds; about 12,000 (3.5%) were called active. The inconclusive results got no clear call from the source; some entries with a clear call stand among them for comparison. The call rests on the fitted dose curve; in most records, active means well fitted inhibition curve with a large enough effect; inconclusive means small, poorly fitted or top-dose-only effect, or another doubt; inactive means no such curve, though single readings can be large or run the other way. No potency is given beside an inconclusive call; the fits are too rough.
# Experiment: qHTS Assay for Inhibitors of Hepatitis C Virus (HCV)
# Settings: Huh7.5.1 HCVcc-Cre (HCVcc is cell-culture hepatitis C virus) infection, luciferase reporter, 44 h; activity change, negative = inhibition: at 41.8 µM (top of the series) unless noted
# How it was run: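 Cells (1,000/well) were plated 4 h before compound, then infected with HCVcc-Cre virus (~0.5 moi). After 44 h further culture, infection was read as luciferase luminescence following a 15 min substrate incubation at room temperature.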
# On the % scale 0 is the no-effect control and ±100 the full control effect; potency means the concentration at half of the fitted maximal effect; tags describe the fitted curve by direction and shape.
SMILES,Potency,"activity change, negative = inhibition"
COc1ccc2[nH]c(=O)c(CN(Cc3nnnn3Cc3ccco3)C3CCCCC3)cc2c1,"inconclusive [inhibitor, single point]",–
Cc1cc(OCC(O)CN2CCCC2)cc(C)c1Cl (stereo not given),"inconclusive [inhibitor, single point]",–
CC(NC(=O)/C(=C/c1ccc(OC(F)F)cc1)c1ccccc1)c1ccccc1 (stereo not given),"inconclusive [inhibitor, full curve]",–
Cc1ccc(C(=O)Nc2ccccc2-c2ccccc2)cc1[N+](=O)[O-],"inconclusive [inhibitor, single point]",–
Cc1cc(C(=O)CSc2n[nH]c(-c3ccccc3F)n2)c(C)n1Cc1cccs1,"inconclusive [inhibitor, partial curve]",–
CCN(CC)CCCN(C(=O)c1cccs1)c1nc(-c2ccc(OC)cc2)cs1,active: 11.2 µM,–
COc1ccc(C(=O)NCC(c2ccco2)N2CCc3ccccc32)cc1OC (stereo not given),"inconclusive [inhibitor, partial curve]",–
COc1cccc(CNC(=O)CCC(=O)N2CC(C)Oc3ccccc32)c1OC (stereo not given),–,inactive: -13.6%
N=c1c2c3c(sc2ncn1Cc1ccco1)CCCCC3,–,inactive: -28.9%
CC(=O)N1CCc2cc(Br)cc(S(=O)(=O)N3CCCCC3)c21,–,inactive: -0.478%
CC(C)COc1ccc(C(=O)NCc2ccco2)cc1,"inconclusive [inhibitor, single point]",–
O=C(CC1C(=O)NCCN1Cc1ccc(-c2ccccc2)cc1)NCC1CC1 (stereo not given),"inconclusive [inhibitor, single point]",–
COc1ccc(NC(=O)CSc2nnc(Cc3ccc(C)cc3)c(=O)n2N)cc1,"inconclusive [inhibitor, single point]",–
O=C(CSC1=NCCN1)NC1CCCCCC1,"inconclusive [inhibitor, full curve, poor fit]",–
O=C(Nc1ccc(Cl)cc1C(=O)NCc1cccnc1)c1ccc(Cl)cc1Cl,"inconclusive [inhibitor, single point]",–
Cc1nc(SCC(=O)Nc2ccnc3ccccc23)n[nH]1,"inconclusive [inhibitor, single point]",–
O=C(CCSc1ccccc1Cl)Nc1cccc([N+](=O)[O-])c1,"inconclusive [inhibitor, partial curve, poor fit]",–
CC(C)(C)c1nc2c(Br)cc(Br)cc2c(=O)o1,–,inactive: 19.8%
Fc1ccc(/C=N/NC2=Nc3cccc4cccc2c34)cc1,"inconclusive [inhibitor, single point]",–
O=C(CSc1nc2ccccc2c(=O)n1-c1ccccc1)N1CCc2ccccc2C1,active: 12.6 µM,–
COc1ccc(C)cc1NC(=O)C1CCCCN1S(=O)(=O)c1ccccc1 (stereo not given),"inconclusive [inhibitor, partial curve]",–
O=[N+]([O-])c1ccc(-c2ccc(/C=N/Nc3nc(N4CCCCC4)nc(N4CCCCC4)n3)o2)cc1,–,inactive: -14.6%
C=CCOC1=CS(=O)(=O)N(Cc2ccc(Br)cc2)c2ccc(Br)cc21,active: 20 µM,–
O=C(NCc1ccccc1)Nc1cccn(Cc2ccccc2)c1=O,"inconclusive [inhibitor, single point]",–

SMILES,Potency,"activity change, negative = inhibition"
O=C1OC(c2cccs2)=N/C1=C\c1ccc(-c2ccccc2Cl)o1,–,inactive: 1.39%
CCOC(=O)c1c(NC(=O)C2=C(C)NC(=S)NC2c2ccc(F)cc2)sc(C)c1C (stereo not given),active: 8.91 µM,–
CCOc1ccccc1NC(=O)c1cc(SC)ccc1Cl,active: 22.4 µM,–
CCN(CC)S(=O)(=O)c1ccc(N2CCOCC2)c(NC(=O)c2cc(C)cc(C)c2)c1,–,inactive: -24.7%
COc1ccc(OC)c(NC(=O)c2cc(OC(C)=O)cc(C(=O)Nc3cc(OC)ccc3OC)c2)c1,"inconclusive [inhibitor, partial curve]",–
CC(C)Nc1nc(-c2ccncc2)nc(-c2ccccc2)c1C#N,"inconclusive [inhibitor, partial curve]",–
O=C(NCC(c1ccc(F)cc1)N1CCOCC1)c1cccnc1Sc1ccc(Cl)cc1 (stereo not given),"inconclusive [inhibitor, single point]",–
Cc1c(CC(=O)N2C[C@H]3C[C@@H](C2)c2cccc(=O)n2C3)c(=O)oc2cc(O)c(Cl)cc12,–,inactive: 7.86%
CC#CC[N+](C)(C)CCCCCCCCCCCC,active: 5.01 µM,–
Cc1ccc2[nH]c3c(N4CCN(Cc5ccccc5)CC4)ncnc3c2c1,"inconclusive [inhibitor, partial curve]",–
COc1cc2cc(C(C)(C)O)oc(=O)c2cc1OC,"inconclusive [inhibitor, single point]",–
CCOC(=O)c1c(C)[nH]c(C)c1C(=O)COC(=O)/C=C/c1ccc(OC)cc1,"inconclusive [inhibitor, partial curve, poor fit]",–
CCN(c1ccccc1)S(=O)(=O)c1ccc(C(=O)Oc2ccc(C(C)=O)cc2)cc1,–,inactive: 11.2%
CC(C)(C)C(=O)Nc1ccc(C(=O)Nc2cccnc2)cc1,–,inactive: -1.24%
CCOC(=O)c1c(NC(=O)CSc2nnc(-c3ccco3)o2)sc(C(C)=O)c1C,"inconclusive [inhibitor, single point]",–
Cc1ccc(SCC(=O)NCc2ccccc2C)cc1,–,inactive: -3.59%
COc1ccc(Cl)c2sc(N(Cc3cccnc3)C(C)=O)nc12,active: 12.6 µM,–
OCCCNc1cc(-c2ccccc2)nc2cc(-c3ccc(F)cc3)nn12,"inconclusive [inhibitor, single point]",–
O=C(C[C@@H]1NS(=O)(=O)OC2CCCCC21)c1ccccc1 (stereo not given in full),active: 0.282 µM,–
COC(=O)[C@]1(C)N[C@H](CN(C)C(=O)c2ccccc2)[C@@H]2C(=O)N(C)C(=O)[C@@H]21,active: 3.98 µM,–
O=C(NCC(c1cccs1)N1CCOCC1)c1ccc(Cl)c([N+](=O)[O-])c1 (stereo not given),"inconclusive [inhibitor, single point]",–
Cc1sc(N2CCN(S(=O)(=O)c3ccc4c(c3)NC(=O)CO4)CC2)nc1-c1ccccc1,–,inactive: 4.28%
COc1ccc(NC(=O)CN2CCC(Cc3ccccc3)CC2)cc1S(=O)(=O)N1CCOCC1,"inconclusive [inhibitor, single point]",–
CCOC(=O)c1c(NC(=O)CSc2nnc(Cc3ccccc3)o2)sc(C)c1C,"inconclusive [inhibitor, partial curve]",–

SMILES,Potency,"activity change, negative = inhibition"
COCCNC(=O)CSc1ncnc2sc(-c3ccccc3)cc12,"inconclusive [inhibitor, single point]",–
Cc1cc(C)c(O)c(-c2cc(C(=O)Nc3cccnc3)[nH]n2)c1,"inconclusive [inhibitor, single point]",–
O=C(CCCOc1ccccc1)Nc1ccc(Cl)cn1,–,inconclusive: -49.9% [inhibitor]
Clc1ccccc1/C=C/C=N/Nc1nc(N2CCOCC2)nc(N2CCOCC2)n1,"inconclusive [inhibitor, full curve, poor fit]",–
CC(=O)N1CC(=O)N=C1SCC(=O)Nc1nc(C)c(-c2ccccc2)s1,"inconclusive [inhibitor, partial curve]",–
CCC(=O)NC(=S)Nc1ccc(NC(=O)COc2ccc(Cl)c(C)c2)cc1,"inconclusive [inhibitor, full curve, poor fit]",–
O=C(c1cc(NC(=O)C23CC4CC(CC(C4)C2)C3)cc(NC(=O)C23CC4CC(CC(C4)C2)C3)c1)N1CCCCC1,"inconclusive [inhibitor, partial curve]",–
Cc1cccc(N(C)c2ccc3cc(S(=O)(=O)N4CCCC4)ccc3n2)c1,"inconclusive [inhibitor, partial curve]",–
CSC1=NC(C)(C)C=C(/C=C/c2ccc(Cl)cc2Cl)N1,"inconclusive [inhibitor, single point]",–
COc1cccc(-n2cnnc2SCC(=O)NC2CC2)c1,–,inactive: -2.6%
COC(=O)c1ccc(/C=N/OCC(=O)NCc2ccc(F)cc2)cc1,"inconclusive [inhibitor, single point]",–
CCOc1ccccc1Nc1ncnc2c1cnn2-c1ccccc1,"inconclusive [inhibitor, full curve, poor fit]",–
Cc1ccc(OCC(=O)N2N=C(c3cccnc3)CC2(O)C(F)(F)F)cc1C (stereo not given),–,inactive: -3.57%
COc1cc(-c2nnc(SCC3(c4ccc(Br)cc4)OCCO3)o2)cc(OC)c1OC,"inconclusive [inhibitor, partial curve, poor fit]",–
C[C@H](NS(=O)(=O)c1ccc2c(c1)OCCCO2)C(=O)N1CCN(c2ccc(F)cc2)CC1,"inconclusive [inhibitor, single point]",–
Cc1cc(C)c(S(=O)(=O)N2CCN(C(=O)C3COc4ccccc4O3)CC2)c(C)c1 (stereo not given),active: 11.2 µM,–
Cc1ccccc1N=C1NN=C(c2ccccc2F)CS1,"inconclusive [inhibitor, single point]",–
CCCS(=O)(=O)c1c(S(=O)(=O)CCC)c2c3ccccc3ccn2c1C(=O)OC,"inconclusive [inhibitor, full curve]",–
Cc1noc(C)c1COC(=O)c1cccc(S(=O)(=O)N2c3ccccc3CC2C)c1 (stereo not given),active: 11.2 µM,–
CC(NC(=O)Nc1ccc(F)cc1)c1ccc2c(c1)OCO2 (stereo not given),–,inactive: -4.02%
Cc1ccccc1N1C(=O)NC(=O)/C(=C\c2cnn(-c3ccccc3)c2)C1=O,–,inactive: 18.3%
Cc1noc(C)c1C(=O)Nc1nc2ccccc2s1,"inconclusive [inhibitor, single point]",–
